In the supplement of paper PMC3334620:
The full ranking holds about 33,000 sequences; the median of “E-score (-0.5 to 0.5)” is about -0.054, and the highest 2% start at about 0.35. The list shows a part of the results.

What follows are sequences tested against T1, Stb5 (UniProt P38699) (assay: PBM E-score (8-mer binding enrichment) (E-score (-0.5 to 0.5)); higher = stronger / more preferred TF binding; most listed sequences are background and not binding sites). Conditions: protein concentration: 200 nM; construct: GST-full length.
T1 sequence: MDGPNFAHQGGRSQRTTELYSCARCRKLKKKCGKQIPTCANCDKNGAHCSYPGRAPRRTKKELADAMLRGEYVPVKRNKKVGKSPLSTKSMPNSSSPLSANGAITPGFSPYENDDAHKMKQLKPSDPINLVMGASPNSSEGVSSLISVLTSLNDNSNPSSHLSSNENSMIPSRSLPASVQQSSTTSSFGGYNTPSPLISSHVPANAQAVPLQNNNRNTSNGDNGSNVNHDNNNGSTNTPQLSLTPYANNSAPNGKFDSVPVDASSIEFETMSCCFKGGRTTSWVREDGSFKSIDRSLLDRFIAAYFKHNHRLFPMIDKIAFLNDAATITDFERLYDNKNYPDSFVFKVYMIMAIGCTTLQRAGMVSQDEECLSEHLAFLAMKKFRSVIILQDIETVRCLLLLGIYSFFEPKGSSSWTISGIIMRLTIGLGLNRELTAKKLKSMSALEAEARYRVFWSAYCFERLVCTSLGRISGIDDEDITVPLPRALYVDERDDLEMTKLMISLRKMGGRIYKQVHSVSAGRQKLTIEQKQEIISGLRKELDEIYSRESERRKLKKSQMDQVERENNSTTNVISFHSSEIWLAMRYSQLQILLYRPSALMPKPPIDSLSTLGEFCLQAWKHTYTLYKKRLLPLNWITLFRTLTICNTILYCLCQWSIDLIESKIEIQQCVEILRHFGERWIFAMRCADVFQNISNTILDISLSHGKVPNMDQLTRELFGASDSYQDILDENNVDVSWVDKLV
Procedure, shortened: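 E-scores (a modified Wilcoxon-Mann-Whitney statistic) were assigned by the Universal PBM Analysis Suite to every ungapped eight-base word pooled with its reverse complement. The input came from universal all-10-mer Agilent arrays made double-stranded by primer extension and probed with GST-tagged yeast transcription factors at about 100-200 nM. Fluorescent anti-GST detected bound protein, and masliner normalised the scans.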

Row | Sequence | PBM E-score
1 | CACCAAAC | -0.19
2 | ACACGCAT | -0.0874
3 | ATTACTTG | -0.126
4 | ATGCGCTG | 0.0133
5 | GAGGAACA | -0.015
6 | CCCCCCAA | -0.196
7 | CCCGTGGA | 0.192
8 | CTGTGACC | -0.0498
9 | GCGCCTAC | 0.00541
10 | CCGCCGTA | 0.381
11 | ATGCGTTC | -0.0705
12 | AACTAGCT | -0.0977
13 | GAACGGCC | 0.138
14 | ATCGGAGA | 0.33
15 | AGTGCTAG | -0.165
16 | AAGTCCTA | 0.0926
17 | ACCCCGAA | 0.37
18 | AAACAGGG | -0.189
19 | AAAGACGC | -0.0577
20 | ACGCTTGC | -0.235
21 | ACGATACA | -0.15
22 | AATCTGTC | -0.055

Row | Sequence | PBM E-score
23 | GTGAACAA | -0.0543
24 | ACTACCCC | -0.0759
25 | TATCTCCA | 0.185
26 | CTATACAC | -0.00519
27 | CCTGCCAA | -0.251
28 | AGAGGACG | -0.135
29 | CTACTTGC | 0.015
30 | AGTGCACG | -0.128
31 | CGCCGCAA | 0.336
32 | CGATTGCC | 0.0894
33 | ACTTGACT | -0.115
34 | CGCTCCTA | 0.186
35 | ATCGCGTC | -0.0404
36 | CAATATGC | -0.107
37 | AGGTTTTA | 0.0721
38 | CCTAGAAA | 0.00815
39 | AGCAAAAG | -0.24
40 | AAGTGTAT | -0.268
41 | CTCGATAC | -0.114
42 | CAGCGGCG | 0.326
43 | CCTATCAA | -0.0484
44 | CGCAGGAA | 0.0192

Row | Sequence | PBM E-score
45 | TACTTAAA | 0.0015
46 | AACGCTGA | -0.0905
47 | TGTAAAAA | -0.194
48 | CAGGATGA | -0.267
49 | AAATTGCC | 0.256
50 | TAAAGTTA | -0.114
51 | GAGGCTCC | -0.0299
52 | CCGCGACC | 0.244
53 | CCCGGTCG | 0.269
54 | ATGGCTCC | 0.0356
55 | AAACGTTC | -0.135
56 | AGCTGAGA | -0.19
57 | AGCTAGAA | -0.218
58 | GGACGACC | -0.0946
59 | CAGCAACG | 0.0141
60 | CAAATGAA | -0.0783
61 | TCCCCCCA | -0.331
62 | CCCGCAGA | 0.251
63 | GCCTTGAA | -0.261
64 | AATCCTAG | -0.0194
65 | ATGCGAGG | -0.0963
66 | ATGCGATA | 0.093

Row | Sequence | PBM E-score
67 | GCGGTTTA | 0.139
68 | AAAACCCC | 0.355
69 | TCTACACA | -0.196
70 | AAGTTCCA | -0.172
71 | ATAGTTTG | -0.137
72 | CAAGGGCC | 0.0868
73 | AGCCACGC | -0.239
74 | CCGAGTCA | -0.103
75 | TACCCGGA | 0.21
76 | GATAAAAC | 0.261
77 | CCAATGGC | -0.0094
78 | AGTCAGCC | -0.115
79 | CACTAGGC | 0.0595
80 | AGGAGTGG | -0.259
81 | CACCAAAA | 0.0886
82 | TAAGGGCA | -0.156
83 | CAATCATA | -0.0755
84 | ATCGGTAG | 0.237
85 | ACCAGGGC | -0.196
86 | ATTCAAGC | -0.0725
